{
  "source": "PubChem BioAssay AID588855",
  "about": "(National Center for Advancing Translational Sciences (NCATS), 2011)",
  "note": "Where “and” joins values, the source holds several entries; their conditions need not be identical. Equal entries are not always repeated. Hit rate of the full screen: of about 410,000 compounds, about 5,000 (1.2%) were called active. The inconclusive results got no clear call from the source; some entries with a clear call stand among them for comparison. Calls follow the shape of the dose curve; as a rule, active = well fitted inhibition curve with a large enough effect; inconclusive = small, poorly fitted or top-dose-only effect; inactive = no such curve, though single readings can be large or run the other way. Where the call is inconclusive, the potency comes from a doubtful curve fit. % is scaled to controls: 0 for no effect and ±100 for the full control effect; potency is read from the fitted curve at half-maximal effect; tags tell the direction and shape of the fitted curve.",
  "data": [
    {"experiment": "qHTS for Inhibitors of TGF-b; also: nearly all actives have a fitted effect of over 65% in size", "conditions": "HepG2 CAGA-GFP TGF-b/SMAD3 reporter, GFP fluorescence, 18 h, TGF-beta stimulated, 500 pg/mL final; series mostly up to 46.1 µM; activity, negative = inhibition: at the top concentration", "how_it_was_run": "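First, reporter cells (HEPG2 CAGA-GFP) rested 2 h at 37 degrees C. Next, compounds were pinned in and TGF-beta added to 500 pg/mL final. After 18 h, GFP was imaged per cell and summed per well.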", "values": [
      {"smiles": "COc1ccccc1CNC(=O)COC(=O)c1cc2ccccc2o1", "Potency": "inconclusive: 22.4 µM [inhibitor, single point]"},
      {"smiles": "COc1ccc(C2=NN(c3nc4ccccc4s3)C(=O)C2)cc1", "Potency": "inconclusive: 35.5 µM [inhibitor, single point]"},
      {"smiles": "CCCCC(=O)NC(c1cccs1)c1cc(Cl)c2cccnc2c1O", "note": "(configuration not stated)", "activity, negative = inhibition": "inactive: 0.339%"},
      {"smiles": "COc1ccccc1NC(=O)c1oc2ccc(C)cc2c1C", "activity, negative = inhibition": "inactive: 5.89%"},
      {"smiles": "Cc1cccc(N2CN(Cc3cccnc3)CNC2=S)c1", "activity, negative = inhibition": "inactive: 11.5%"},
      {"smiles": "Cc1ccc(Cn2c(CNS(=O)(=O)c3c(C)cc(C)cc3C)nc3cccnc32)cc1", "Potency": "inconclusive: 20 µM [inhibitor, partial curve, poor fit]"},
      {"smiles": "CCN(Cc1ccccc1)Cc1c(O)ccc2c(=O)c(-c3ccccc3OC)c(C(F)(F)F)oc12", "Potency": "inconclusive: 2.82 µM [inhibitor, partial curve, poor fit]"},
      {"smiles": "CNC(=S)N/N=C1\\C(=O)c2cccc3cccc1c23", "Potency": "inconclusive: 7.08 µM [inhibitor, partial curve]"},
      {"smiles": "CC(=O)/C=C1/C(=O)Nc2ccccc21", "Potency": "inconclusive: 35.5 µM [inhibitor, single point]"},
      {"smiles": "CCOC(=O)c1ccc(NC(=S)NC2CC(C)(C)NC(C)(C)C2)cc1", "Potency": "inconclusive: 20 µM [inhibitor, partial curve, poor fit]"},
      {"smiles": "N#Cc1cccnc1N1CCN(C(=O)c2[nH]c(C(F)(F)F)nc2-c2ccccc2)CC1", "activity, negative = inhibition": "inactive: -0.307%"},
      {"smiles": "COc1ccc(NC(=O)N(C)C[C@H]2Oc3c(NC(=O)Nc4ccc5c(c4)OCO5)cccc3C(=O)N([C@H](C)CO)C[C@@H]2C)cc1", "Potency": "inconclusive: 0.1 µM [inhibitor, full curve, poor fit]"},
      {"smiles": "O=C(CCNC(=O)c1ccc(Br)cc1)Nc1cccc(S(=O)(=O)N2CCCCCC2)c1", "Potency": "inconclusive: 20 µM [inhibitor, single point]"},
      {"smiles": "CCN(C(=O)CCc1nc(-c2ccc(C)cc2)no1)c1cc(C)ccc1C", "Potency": "inconclusive: 12.6 µM [inhibitor, single point]"},
      {"smiles": "COc1ccc(NC(=S)NNC(=O)CCn2cc([N+](=O)[O-])cn2)cc1", "activity, negative = inhibition": "inactive: -17.2%"},
      {"smiles": "CC1CCc2sc(C(=O)OCC(=O)NCc3ccccc3)cc2C1", "note": "(configuration not stated)", "Potency": "inconclusive: 35.5 µM [inhibitor, single point]"},
      {"smiles": "O=C(Nc1c(F)cc(F)cc1Br)c1cc(-c2ccc(O)cc2)on1", "Potency": "inconclusive: 35.5 µM [inhibitor, single point]"},
      {"smiles": "O=C(c1cc([N+](=O)[O-])ccc1Cl)N1CCN(c2ccccc2)CC1", "activity, negative = inhibition": "inactive: -16.6%"},
      {"smiles": "Cc1cc2oc(=O)c(CC(=O)NCCc3ccccc3)c(C)c2c2occ(C(C)(C)C)c12", "Potency": "inconclusive: 35.5 µM [inhibitor, partial curve, poor fit]"},
      {"smiles": "CCC(=O)N(Cc1cc2c(C)ccc(C)c2[nH]c1=O)C1CCCCC1", "Potency": "inconclusive: 17.8 µM [inhibitor, single point]"},
      {"smiles": "CN1CC(c2ccc(Cl)c(Cl)c2)[C@@]2(COc3ccccc3C2=O)[C@@]12C(=O)Nc1ccccc12", "note": "(some centres not stated)", "activity, negative = inhibition": "inactive: 0.848%"},
      {"smiles": "Cc1cc(C(=O)O)c2c(=O)n(C)c(=O)n(C)c2n1", "activity, negative = inhibition": "inactive: 1.11%"},
      {"smiles": "COc1cc(OC)c2c(-c3ccccc3)cc(=O)oc2c1C(CCN1CCCCC1)c1ccc(N(C)C)cc1", "note": "(configuration not stated)", "Potency": "inconclusive: 35.5 µM [inhibitor, single point] and inconclusive: 15.8 µM [inhibitor, single point]"},
      {"smiles": "CCOC(=O)c1cc(CC)sc1/N=C/c1c(O)ccc2ccccc12", "activity, negative = inhibition": "inactive: -0.0055%"},
      {"smiles": "CCOc1cc(CNCc2cccs2)cc(Br)c1OCC", "activity, negative = inhibition": "inactive: 2.5%"},
      {"smiles": "CC(C)(C)c1ccc(C(=O)Nc2ccc3c(c2)C(=O)NC3=O)cc1", "Potency": "inconclusive: 1.26 µM [inhibitor, partial curve, poor fit]"},
      {"smiles": "CCN1CCC(N(Cc2ccc3c(c2)OCO3)C(=O)Nc2cc(Cl)ccc2C(=O)OC)CC1", "Potency": "inconclusive: 35.5 µM [inhibitor, single point]"},
      {"smiles": "Cc1cc(=O)oc2cc(O)cc(OCc3ccccc3)c12", "Potency": "inconclusive: 35.5 µM [inhibitor, single point]"},
      {"smiles": "Clc1ccc2c(c1)C(N1CCNCC1)Cc1ccccc1S2", "note": "(configuration not stated)", "Potency": "inconclusive: 22.4 µM [inhibitor, single point]"},
      {"smiles": "Cc1cc(C(=O)N2CCCC(N3CCN(c4ccc(F)cc4)CC3)C2)c(C)o1", "note": "(configuration not stated)", "activity, negative = inhibition": "inactive: -18.6%"},
      {"smiles": "C[C@@H]1CN([C@H](C)CO)S(=O)(=O)c2ccc(C#Cc3ccccc3F)cc2O[C@H]1CN(C)C(=O)c1ccc2c(c1)OCO2", "Potency": "inconclusive: 35.5 µM [inhibitor, single point]"},
      {"smiles": "COc1nc(N)nc(N)c1NS(=O)(=O)c1ccc(C)cc1", "activity, negative = inhibition": "inactive: 16.7%"},
      {"smiles": "O=C(CCn1cnc2onc(-c3ccc(F)cc3)c2c1=O)N1CCN(c2ccc(F)cc2)CC1", "Potency": "inconclusive: 0.891 µM [inhibitor, partial curve, poor fit]"},
      {"smiles": "COc1ccc(C(=O)COC(=O)CCN=C2NS(=O)(=O)c3ccccc32)cc1OC", "activity, negative = inhibition": "inactive: -0.326%"},
      {"smiles": "COc1ccc(NC(=O)CNC(c2ccccc2)c2ccccc2)cc1Cl", "Potency": "active: 11.2 µM"},
      {"smiles": "Cc1cccc(NC(=O)C2(C)CC3c4ccccc4C2c2ccccc23)c1C", "note": "(configuration not stated)", "Potency": "inconclusive: 2.82 µM [inhibitor, single point]"},
      {"smiles": "Cc1ccc(-c2n[nH]c(=S)n2/N=C/c2ccc(C)o2)cc1", "Potency": "inconclusive: 6.31 µM [inhibitor, single point]"},
      {"smiles": "CC(C(=O)NCC1CCCCC1)N(C)Cc1ccc(Br)cc1", "note": "(configuration not stated)", "Potency": "inconclusive: 25.1 µM [inhibitor, single point]"},
      {"smiles": "Cc1cccc(Nc2nc(N)c([N+](=O)[O-])c(NCc3ccco3)n2)c1", "Potency": "inconclusive: 35.5 µM [inhibitor, single point]"},
      {"smiles": "Cc1ccc(OC(C)C(=O)Nc2ccc(S(=O)(=O)Nc3cc(C)on3)cc2)cc1", "note": "(configuration not stated)", "Potency": "inconclusive: 0.562 µM [inhibitor, partial curve, poor fit]"},
      {"smiles": "COc1cc2nc(N3CCCN(C)CC3)nc(Nc3ccncc3)c2cc1OC", "Potency": "inconclusive: 35.5 µM [inhibitor, single point]"},
      {"smiles": "COc1cc(OC)c(S(=O)(=O)N2CCOCC2)cc1S(=O)(=O)N1CCOCC1", "activity, negative = inhibition": "inactive: -14.2%"}
    ]}
  ]
}
